This is one part of the list.

This test has as its system HSkMC (human skeletal muscle cells). Description: cytotoxicity call (relative viability < 0.9). Particulars: 10 µM.
Take `C[C@H](CO)N1C[C@H](C)[C@@H](CN(C)Cc2ccc(C(F)(F)F)cc2)OCCCC[C@H](C)Oc2ccc(N(C)C)cc2C1=O`: the cytotoxicity call was “inactive”. For `C[C@H]1CN([C@@H](C)CO)C(=O)Cc2cc(NS(=O)(=O)c3ccccc3)ccc2O[C@H]1CN(C)Cc1ccc(Oc2ccccc2)cc1`, the cytotoxicity call is “inactive”. In the case of `COc1ccc(CN(C)C[C@@H]2OCCCC[C@H](C)Oc3ccc(NS(=O)(=O)c4ccccc4)cc3C(=O)N([C@@H](C)CO)C[C@H]2C)cc1`, the cytotoxicity call is “inactive”. The result for `CN1CCN(C(=O)C[C@H]2C[C@H]3c4cc(NC(=O)c5ccc6c(c5)OCO6)ccc4O[C@H]3[C@@H](CO)O2)CC1` reads “inactive”; that for `C#C[C@@]1(O)[C@@H](CO)O[C@@H](n2ccc(N)nc2=O)[C@@H]1O`, “inactive”. With `C=C/C=C/[C@H]1C(=C)CN([C@H](Cc2ccc(-n3cc(CCC(=O)NO)nn3)cc2)C(=O)OC)[C@@H]1[C@H](O)Cc1ccccc1` the entry was “inactive”; with `C[C@@H]1CN([C@@H](C)CO)C(=O)Cc2cc(NC(=O)Nc3ccc4c(c3)OCO4)ccc2O[C@H]1CN(C)Cc1ccc(Oc2ccccc2)cc1`, “inactive”; with `C[C@H](CO)N1C[C@H](C)[C@@H](CN(C)Cc2ccncc2)OCCCC[C@H](C)Oc2ccc(NC(=O)Nc3cccc4ccccc34)cc2C1=O`, “inactive”. With `CC1(C)[C@H](C(N)=O)CC[C@@]1(C)C(=O)O` the entry was “inactive”; with `C[C@@H]1CN([C@H](C)CO)C(=O)c2cc(NC(=O)c3ccncc3)ccc2O[C@H]1CN(C)C(=O)Nc1ccc2c(c1)OCO2`, “inactive”; with `CCCNC(=O)Nc1ccc2c(c1)OC[C@@H](C)N(C(=O)C1CCOCC1)C[C@H](C)[C@H](OC)CN(C)C2=O`, “inactive”.
